# Assay results reported in the supplement of paper PMC8728848.
# The list shows a part of the results.
# B1: Neuropilin-2 (Homo sapiens), O60462 (protein)
# chain: MDMFPLTWVFLALYFSRHQVRGQPDPPCGGRLNSKDAGYITSPGYPQDYPSHQNCEWIVYAPEPNQKIVLNFNPHFEIEKHDCKYDFIEIRDGDSESADLLGKHCGNIAPPTIISSGSMLYIKFTSDYARQGAGFSLRYEIFKTGSEDCSKNFTSPNGTIESPGFPEKYPHNLDCTFTILAKPKMEIILQFLIFDLEHDPLQVGEGDCKYDWLDIWDGIPHVGPLIGKYCGTKTPSELRSSTGILSLTFHTDMAVAKDGFSARYYLVHQEPLENFQCNVPLGMESGRIANEQISASSTYSDGRWTPQQSRLHGDDNGWTPNLDSNKEYLQVDLRFLTMLTAIATQGAISRETQNGYYVKSYKLEVSTNGEDWMVYRHGKNHKVFQANNDATEVVLNKLHAPLLTRFVRIRPQTWHSGIALRLELFGCRVTDAPCSNMLGMLSGLIADSQISASSTQEYLWSPSAARLVSSRSGWFPRIPQAQPGEEWLQVDLGTPKTVKGVIIQGARGGDSITAVEARAFVRKFKVSYSLNGKDWEYIQDPRTQQPKLFEGNMHYDTPDIRRFDPIPAQYVRVYPERWSPAGIGMRLEVLGCDWTDSKPTVETLGPTVKSEETTTPYPTEEEATECGENCSFEDDKDLQLPSGFNCNFDFLEEPCGWMYDHAKWLRTTWASSSSPNDRTFPDDRNFLRLQSDSQREGQYARLISPPVHLPRSPVCMEFQYQATGGRGVALQVVREASQESKLLWVIREDQGGEWKHGRIILPSYDMEYQIVFEGVIGKGRSGEIAIDDIRISTDVPLENCMEPISAFAGENFKVDIPEIHEREGYEDEIDDEYEVDWSNSSSATSGSGAPSTDKEKSWLYTLDPILITIIAMSSLGVLLGATCAGLLLYCTCSYSGLSSRSCTTLENYNFELYDGLKHKVKMNHQKCCSEA
# Key:
# Assay in all cases: glycan array binding signal (z-score within array); higher = stronger binding
# Settings in all cases: glycan notation: IUPAC condensed, linker removed
# Glc(a1-6)Glc(a1-6)Glc = molecular target: Glc(a1-6)Glc(a1-6)Glc
# Method in brief: (§1)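 From the Consortium for Functional Glycomics database, 3228 arrays were curated, keeping only those whose protein sequence was available. Binding is given as a within-array Z-score averaged across arrays sharing a protein sequence and across linkers. Negative Z-scores can be read as non-binding.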
# Glc(b1-4)Glc = molecular target: Glc(b1-4)Glc
# Method in brief: as §1
# Glc(b1-6)Glc = molecular target: Glc(b1-6)Glc
# Method in brief: as §1
# GlcA(b1-3)Gal = molecular target: GlcA(b1-3)Gal
# Method in brief: as §1
# GlcA(b1-3)GlcNAc = molecular target: GlcA(b1-3)GlcNAc
# Method in brief: as §1
# GlcA(b1-6)Gal = molecular target: GlcA(b1-6)Gal
# Method in brief: as §1
# [1] = molecular target: GlcNAc(a1-3)Gal(b1-4)GlcNAc
# Method in brief: as §1
# [2] = molecular target: GlcNAc(a1-4)Gal(b1-3)GlcNAc
# Method in brief: as §1
# [3] = molecular target: GlcNAc(a1-4)Gal(b1-4)GalNAc
# Method in brief: as §1
# [4] = molecular target: GlcNAc(a1-4)Gal(b1-4)GlcNAc
# Method in brief: as §1
# [5] = molecular target: GlcNAc(a1-4)Gal(b1-4)GlcNAc(b1-3)Gal(b1-4)Glc
# Method in brief: as §1
# [6] = molecular target: GlcNAc(a1-4)Gal(b1-4)GlcNAc(b1-3)Gal(b1-4)GlcNAc
# Method in brief: as §1
# [7] = molecular target: GlcNAc(a1-4)Gal(b1-4)GlcNAc(b1-3)Gal(b1-4)GlcNAc(b1-3)Gal(b1-4)GlcNAc
# Method in brief: as §1
# [8] = molecular target: GlcNAc(a1-4)Gal(b1-4)GlcNAc(b1-3)Gal(b1-4)[Fuc(a1-3)]GlcNAc(b1-3)Gal(b1-4)[Fuc(a1-3)]GlcNAc
# Method in brief: as §1
# [9] = molecular target: GlcNAc(a1-6)Gal(b1-4)GlcNAc
# Method in brief: as §1
# [10] = molecular target: GlcNAc(b1-2)Gal(b1-3)GalNAc
# Method in brief: as §1
# [11] = molecular target: GlcNAc(b1-2)Man(a1-3)[GlcNAc(b1-2)Man(a1-6)]Man(b1-4)GlcNAc(b1-4)GlcNAc
# Method in brief: as §1
# [12] = molecular target: GlcNAc(b1-2)Man(a1-3)[GlcNAc(b1-2)Man(a1-6)]Man(b1-4)GlcNAc(b1-4)[Fuc(a1-6)]GlcNAc
# Method in brief: as §1
# GlcNAc(b1-3)Gal = molecular target: GlcNAc(b1-3)Gal
# Method in brief: as §1
# [13] = molecular target: GlcNAc(b1-3)Gal(b1-3)GalNAc
# Method in brief: as §1
# GlcNAc(b1-3)Gal(b1-4)Glc = molecular target: GlcNAc(b1-3)Gal(b1-4)Glc
# Method in brief: as §1
# [14] = molecular target: GlcNAc(b1-3)Gal(b1-4)GlcNAc
# Method in brief: as §1
# [15] = molecular target: GlcNAc(b1-3)Gal(b1-4)GlcNAc(b1-3)Gal(b1-4)GlcNAc
# Method in brief: as §1
# GlcNAc(b1-3)GalNAc = molecular target: GlcNAc(b1-3)GalNAc
# Method in brief: as §1
# GlcNAc(b1-3)Man = molecular target: GlcNAc(b1-3)Man
# Method in brief: as §1
# [16] = molecular target: GlcNAc(b1-3)[GlcNAc(b1-4)][GlcNAc(b1-6)]GlcNAc
# Method in brief: as §1
# [17] = molecular target: GlcNAc(b1-3)[GlcNAc(b1-6)]Gal(b1-4)GlcNAc
# Method in brief: as §1
# [18] = molecular target: GlcNAc(b1-3)[GlcNAc(b1-6)]GalNAc
# Method in brief: as §1
# [19] = molecular target: GlcNAc(b1-4)Gal(b1-4)GlcNAc
# Method in brief: as §1
# GlcNAc(b1-4)GlcNAc = molecular target: GlcNAc(b1-4)GlcNAc
# Method in brief: as §1
binder,measurement,setting,value
B1,glycan array binding signal (z-score),Glc(a1-6)Glc(a1-6)Glc,-0.466
same,glycan array binding signal (z-score),Glc(b1-4)Glc,0.381
same,glycan array binding signal (z-score),Glc(b1-6)Glc,-0.687
same,glycan array binding signal (z-score),GlcA(b1-3)Gal,-0.364
same,glycan array binding signal (z-score),GlcA(b1-3)GlcNAc,-0.632
same,glycan array binding signal (z-score),GlcA(b1-6)Gal,-0.217
same,glycan array binding signal (z-score),[1],-0.437
same,glycan array binding signal (z-score),[2],1.66
same,glycan array binding signal (z-score),[3],6.59
same,glycan array binding signal (z-score),[4],0.239
same,glycan array binding signal (z-score),[5],1.04
same,glycan array binding signal (z-score),[6],0.627
same,glycan array binding signal (z-score),[7],-0.398
same,glycan array binding signal (z-score),[8],10.4
same,glycan array binding signal (z-score),[9],-0.283
same,glycan array binding signal (z-score),[10],-0.287
same,glycan array binding signal (z-score),[11],-0.218
same,glycan array binding signal (z-score),[12],0.982
same,glycan array binding signal (z-score),GlcNAc(b1-3)Gal,-0.382
same,glycan array binding signal (z-score),[13],1.07
same,glycan array binding signal (z-score),GlcNAc(b1-3)Gal(b1-4)Glc,-0.317
same,glycan array binding signal (z-score),[14],-0.483
same,glycan array binding signal (z-score),[15],-0.254
same,glycan array binding signal (z-score),GlcNAc(b1-3)GalNAc,-0.205
same,glycan array binding signal (z-score),GlcNAc(b1-3)Man,-0.027
same,glycan array binding signal (z-score),[16],0.25
same,glycan array binding signal (z-score),[17],-0.172
same,glycan array binding signal (z-score),[18],0.104
same,glycan array binding signal (z-score),[19],-0.924
same,glycan array binding signal (z-score),GlcNAc(b1-4)GlcNAc,-0.129
